# From the supplement of paper PMC3334620
# The full ranking holds about 33,000 sequences; the median of “E-score (-0.5 to 0.5)” is about -0.01, and the highest 2% start at about 0.26. This is one part of the list.
# Molecular target: Ste12 (UniProt P13574)
# Assay: PBM E-score (8-mer binding enrichment) (E-score (-0.5 to 0.5)); higher = stronger / more preferred TF binding; most listed sequences are background and not binding sites
# Settings: protein concentration: 200 nM; construct: GST-DNA-binding domain
# Method in brief: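 Full-length yeast transcription factors or their DNA-binding domains, GST-tagged and expressed with PURExpress, were applied at about 100-200 nM to universal all-10-mer Agilent arrays. These arrays had been made double-stranded by primer extension on fresh or once-stripped slides. Detection used fluorescent anti-GST, normalisation used masliner, and E-scores for ungapped eight-base words pooled with reverse complements came from the Universal PBM Analysis Suite.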
row,Sequence,PBM E-score
1,ATGATTAG,0.0893
2,TGATAAAA,0.266
3,GATTTCAA,0.159
4,ATGGCCCA,-0.123
5,TAAAAGTA,0.211
6,AATCAAGA,0.222
7,CCCCTCCC,0.365
8,CCGAAACC,0.142
9,ACTCCATG,-0.121
10,CACGCTAG,0.0182
11,AACGGAAG,0.11
12,CCGTTCAA,0.0213
13,GTAATCCA,-0.129
14,AGAATCAA,0.0782
15,CGGCGTGC,-0.0575
16,GGGCTAAC,-0.31
17,AACTCATC,0.024
18,CTATTGCC,0.00687
19,GCAGAGCC,-0.128
20,AACACTGA,0.229
21,CGCGAATC,0.0213
22,ACCAAGAA,0.0288
23,ATACTCCC,0.00187
24,AAGTAGTA,-0.0474
25,ACGTGGAA,0.0639

row,Sequence,PBM E-score
1,AGGGAGAC,-0.174
2,CCTCTGGC,0.169
3,TTCGAAAA,0.222
4,TAGCAGAA,0.135
5,ATTTAGCA,0.141
6,AGGATGAG,0.0299
7,GTTGCCCA,-0.0149
8,AGCTTGTG,0.0986
9,GGATCCCC,-0.0778
10,CATCTGCA,-0.0879
11,CTTGGCCC,-0.0477
12,GTGCTACA,-0.109
13,CCGGCTCG,-0.0936
14,CGACGAGA,-0.0106
15,GGGAACCC,-0.258
16,CATGAAAA,0.237
17,CACTTCGC,0.0953
18,GCCTGTAC,-0.188
19,AAATACAA,0.22
20,CGGGGGTC,-0.238
21,AACTGTAG,-0.0573
22,AAGTATCC,-0.139
23,CGGACACG,-0.217
24,AACGGTTA,0.0444
25,AACTTATT,0.333

row,Sequence,PBM E-score
1,ACACTAGC,-0.145
2,GCCAGCGA,-0.129
3,AGACCACT,-0.0927
4,AATAAGTC,0.0265
5,CCATCAAC,-0.144
6,AACAGAGA,0.043
7,ATGGGGCC,-0.164
8,CTATGTTC,0.0314
9,CAATGAAG,-0.111
10,AATAGTAT,0.0945
11,AAGCGGCG,0.0295
12,AATTCTGC,0.201
13,GAGTGGGC,-0.089
14,CACAACCA,0.125
15,AGATTTGG,-0.00783
16,CCGACTCG,-0.0656
17,TACATCAA,0.188
18,ACCGTATC,0.12
19,CATATAAG,0.0207
20,AGACAAAT,0.217
21,CTTCGCTA,-0.0824
22,TCAGAGAA,0.157
23,CGATTACC,-0.239
24,AGGCTAAG,-0.192
25,GCCTCTTA,-0.117

row,Sequence,PBM E-score
1,GTAACAAA,0.312
2,CACTGACC,0.0829
3,CTCTCAAC,-0.0802
4,AGTTCGAA,0.146
5,CTTCGGTA,0.0138
6,CGTGAACC,-0.103
7,AGAGGATG,-0.035
8,AACACAGG,-0.15
9,ACCTCACG,0.0362
10,CTAATGCC,-0.165
11,GGTATCGA,0.139
12,ACGCCTTA,-0.0631
13,GTATCCGA,-0.0741
14,CCACGGAA,-0.0956
15,GAAGTCGC,-0.104
16,TGCCCGAA,-0.143
17,GAGAAGCC,-0.122
18,GAGCTACC,-0.116
19,GCTGTGCC,0.0564
20,CCAATAAG,0.0854
21,CGACAACA,0.153
22,ATTTTCCA,0.0716
23,GGTCGCAC,-0.132
24,ACTTCCAT,0.0326
25,GGGTCCTA,-0.0528

row,Sequence,PBM E-score
1,CATTGACC,0.0502
2,CCACTAGG,0.0399
3,AATACCGC,0.183
4,CTTCATAA,0.219
5,ACTGCTTG,-0.0803
6,ACTACAGA,0.146
7,ATCCCCTG,-0.157
8,TGATATAA,-0.12
9,AGGTTTAA,0.0245
10,GAGGGAGC,-0.333
11,CCGGCGAG,-0.0891
12,CGTCAGTA,-0.146
13,AAAACGAG,0.131
14,ACAGTAGG,-0.0853
15,AGCGCACG,-0.01
16,TAGGGAGA,-0.0245
17,AGGCGTGC,-0.163
18,ATTCAGTG,0.0191
19,AGACTATC,-0.148
20,TCCTTAGA,-0.258
21,CACGTCCA,-0.175
22,AGACCTGA,0.0247
23,ATTAGTTA,0.181
24,CAGCCGAC,0.015
25,ATGCTGAA,0.104

row,Sequence,PBM E-score
1,AAGCCATC,0.0411
2,ATCGCGCA,0.0139
3,GAACACAA,0.00368
4,GTCATCAC,-0.161
5,GCCTCTCC,-0.136
6,AATATTAG,0.159
7,CGGCGTAA,0.089
8,CTCATACA,-0.0498
9,AATTCCAA,0.133
10,CTTCCAGA,-0.0768
11,TATTAGGA,-0.0493
12,AAACAGAA,0.201
13,CCTCACTA,-0.0589
14,ATCGGCCC,0.00036
15,ACGCCTGC,-0.0299
16,GCATCCGC,-0.00053
17,ACTTTAAG,0.225
18,CCTTTTGC,-0.0993
19,ACACGCAG,-0.138
20,GGGATAAA,0.271
21,GGTCAAAC,0.0628
22,CCCTCGCA,0.0678
23,GCAACTGA,-0.0568
24,GTCGGAAC,0.0759
25,GCTCAGAA,0.0322

row,Sequence,PBM E-score
1,AGGATCCC,-0.0457
2,GCTCCTAA,-0.175
3,GATCTCGA,-0.0296
4,ACTGGCAG,0.0721
5,AGATACAG,0.0825
6,ACCTGAGT,-3e-05
7,AGGCCTTC,-0.102
8,CGACCTTC,-0.0872
9,CGACAGCA,-0.0436
10,GACATGCA,0.0546
11,ATGGGTCG,0.0354
12,GTCGCATA,0.139
13,GCATGTGA,-0.0635
14,ATCCGACG,-0.00517
15,AGAGCGCT,-0.0685
16,GGTTACTA,0.0972
17,AACACATC,0.0427
18,AGTTGAAG,-0.0305
19,CCGCAGCC,-0.0732
20,CACATAAC,0.13
21,ACACCCTA,0.0499
22,AAGCAACC,0.00622
